Reference: ChEMBL document CHEMBL4888484, “Replenishing the malaria drug discovery pipeline: Screening and hit evaluation of the MMV Hit Generation Library 1 (HGL1) against asexual blood stage Plasmodium falciparum ,using a nano luciferase reporter read-out” (2022)
Several values for one entry are separate records, joined by “and”; a condition that tells them apart may be missing. Identical values can stand only once. In all, about 150,000 compounds went through this assay and about 540 (0.36%) showed an effect of 50% or more. This is one part of the list.

Test system: Plasmodium falciparum
Assay: Primary screen in NF54 nanoGlo assay, in single point, at 2uM, 72h; a lower Z score goes with more inhibition
Assay type: functional, Erythrocyte
Settings: timepoint 72 hour

SMILES | % Inhibition [%] | Z score | % Inhibition (2 µM)
O=C([C@@H]1CCCO1)N1CCCN(Cc2ccc(C3CCCC3)s2)CC1 | 2 | -0.34 | –
COc1ccccc1CCNC(=O)c1csc(NC(C)C)n1 | 6 | -0.74 | –
Cc1ccsc1CCNC(=O)[C@@H]1CNCCO1 | -5 | 0.7 | –
O=C(NCCc1ccccc1)Nc1cnn(Cc2ccccn2)c1 | -9 | 1.19 | –
O=C(NCc1ccccn1)[C@@H]1CN(Cc2cc3ccccc3o2)CCN1 | -6 | 0.97 | –
Clc1ccc([C@@H]2c3cccn3CCCN2Cc2cccnc2)cc1Cl | -2 | 0.27 | –
COCCNC(=O)c1[nH]c2c(NC(=O)Nc3ccc(C)cc3)cc(C)cc2c1-c1ccccc1 | 27 | -3.07 | –
O=C(Nc1ccc(-c2ccccn2)cc1)N1CCCC1 | -8 | 1.06 | –
C[C@H]1CN(C(=O)c2coc3ccccc23)C(C)(C)CO1 | -6 | 0.58 | –
c1cc(-c2noc(CN3CCC[C@H]3C3CCC3)n2)co1 | -10 | 1.49 | –
CC(C)(CC(=O)N1CCCOCC1)c1ccccc1 | -29 | 3.39 | –
O=C(Nc1ccc2c(c1)OCO2)C1CCN(C(=O)c2ccco2)CC1 | 8 | -1.04 | –
COCc1ccc(C(=O)N(C)[C@H]2CCCC[C@H]2C(F)(F)F)cc1F | -9 | 1.08 | –
COc1ccccc1N1CCN(c2c(C(=O)N3CCCC3)cnc3ccc(F)cc23)CC1 | -8 | 1.04 | –
O=C1NCCN1CCN1CCc2[nH]ncc2C1 | -10 | 1.34 | –
O=C(O)[C@@H]1Cc2c([nH]c3ccccc23)CN1C(=O)c1cccn1C1CC1 | -2 | 0.23 | –
CCOC(=O)c1ccc(NC(=O)N2CCc3nc(-c4ccccc4)nc(N4CC(C)OC(C)C4)c3C2)cc1 (configuration not stated) | -16 | 2.05 | –
CCc1nnc(CN(C)C(=O)[C@H](C)c2n[nH]c(=O)c3ccccc23)o1 | -7 | 1.07 | –
CC(=O)Nc1nc(C(=O)NCC(C)(C)N2CCN(C)CC2)cs1 | 5 | -0.85 | –
CC(=O)N1CCCN(C(=O)CCc2ccco2)CC1 | -6 | 0.6 | –
CN(C(=O)c1cccc(Nc2cnn(C)c2)c1)c1cccc(F)c1 | -11 | 1.56 | –

SMILES | % Inhibition [%] | Z score | % Inhibition (2 µM)
Nc1c2c(nc3c1CCCC3)CCCC2 [OCTAAMINOACRIDINE] | 4 | -0.58 | –
Cc1nc(CN2CCc3c(c(C(=O)N(C)Cc4cscn4)nn3Cc3ccccc3)C2)no1 | -5 | 0.9 | –
CC(C)C1(C)NC(=O)N(CC2COc3ccccc3O2)C1=O (configuration not stated) | -1 | 0.13 | –
Cc1nc(Cc2noc(-c3cc(C)c(C)c(S(N)(=O)=O)c3)n2)no1 | 17 | -2.03 | –
O=C1N[C@H]2C[C@@H](C(=O)NC[C@H]3O[C@H](CCOc4ccccc41)CC[C@@H]3O)N(Cc1ncc[nH]1)C2 | -1 | 0.18 | –
Cc1cccc(OCCN2C(=O)COc3ccccc32)c1 | -5 | 0.68 | –
CC(C)CC(=O)Nc1ccc(N2CCN(C(=O)C3CCCC3)CC2)c(C(=O)N2CCCCC2)c1 | -2 | 0.35 | –
CC(=O)N1CCC(NCc2nc3ccccc3n2C)C(C)C1 (configuration not stated) | 2 | -0.29 | –
C[C@H](NC(=O)c1csc(CN(Cc2ccc(F)cc2)Cc2ccccc2F)n1)c1ccccc1 | -4 | 0.35 | –
CCc1nc(C2CC2)nc(N2CCN(S(C)(=O)=O)CC2)c1Cc1cc(C)ccc1C | 7 | -1.26 | –
C1=C(CCNC2=NCCCCC2)CCCC1 | -1 | 0.14 | –
O=C(c1ccc(-n2ccc3ccccc32)s1)N1CCN(c2ccc(F)cc2)CC1 | -11 | 1.42 | –
Cc1ccccc1CC(=O)N1CCC2(CC1)C[C@@H](O)CCO2 | -12 | 1.73 | –
CCc1ccc(-c2nccn2-c2ccc3[nH]c(CO)nc3c2)nc1 | -11 | 1.44 | –
Cc1cc(CN(C)Cc2cc(C)on2)no1 | -7 | 1.11 | –
O=C1CN(C(=O)N[C@@H](Cc2ccccc2)C(=O)Nc2cccc(F)c2)c2ccccc2N1 | – | – | 8% and -4%
CCc1nc(C)c(CN2CCC([C@](C)(O)C(F)(F)F)CC2)o1 | -5 | 0.97 | –
CN1C(=O)C(=O)N(CC(=O)NCCc2ccccc2)C1=O | 5 | -0.87 | –
COc1c(C)cnc(CN2CCC(N(C)CCc3cccnc3)CC2)c1C | -10 | 0.86 | –
Cc1cc(C)n2ncc(-c3noc(-c4cccc5cn[nH]c45)n3)c2n1 | -8 | 0.85 | –
CN1CC(C)(O)C(=O)CC1/C=C/c1ccccc1 (configuration not stated) | 0 | 0.06 | –

SMILES | % Inhibition [%] | Z score | % Inhibition (2 µM)
CCc1ncc(CN(C)CCc2nc(-c3ccccc3)no2)s1 | -4 | 0.34 | –
COc1ccc(NC(=O)Cn2c(C)cc(C)c(-c3nc(-c4ccc5c(c4)OCO5)no3)c2=O)c(OC)c1 | -7 | 0.93 | –
Cc1c(Cl)cccc1-c1nc(-c2ncccn2)no1 | -2 | 0.19 | –
CC(C)Cn1cncc1CNc1nc(N)nc2c1CCCC2 | 1 | -0.17 | –
CN(C)c1nc(N(C)CCn2cccn2)ncc1F | -19 | 2.99 | –
Cc1ncc(C)c(NCc2cccnc2Oc2ccc(F)cc2F)n1 | -3 | 0.32 | –
CCN1CCN(C(=O)CCC2CCN([C@@H](C)CCc3ccc(O)cc3)CC2)CC1 | -16 | 2.22 | –
Cc1cc(O)cc(=O)n1CCCC(=O)Nc1ccc(N2CCOCC2)cc1 | -3 | 0.42 | –
O=C(Cc1ccc(Cl)cc1)Nc1ccc(C(=O)N2CCCCC2)cc1 | -20 | 3.72 | –
Cc1nc2n(c(=O)c1C)CCN2CCN1CCOCC1 | 2 | -0.41 | –
O=C(NCc1nc(C2CCOCC2)no1)c1ccno1 | -14 | 1.83 | –
Cc1cc(C)n(CC(=O)NC2CCCCCCC2)n1 | 1 | -0.09 | –
O=C(NCc1nc(C2CC2)no1)c1ccco1 | -17 | 1.96 | –
CCc1cnc(N)nc1N1CCC(CCC(=O)NC2CC2)CC1 | -7 | 0.75 | –
C[C@H]1Cc2cc(CNC(=O)Nc3ccnc(CN(C)C)c3)ccc2O1 | -1 | 0.19 | –
Cc1cc(Br)ccc1NC(=O)C1CCN(c2cc(=O)n(C)c(=O)n2C)CC1 | 1 | -0.14 | –
O=C(NCC1([C@H](O)c2ccccc2)CC1)Nc1ccc2cc[nH]c2c1 | 8 | -0.98 | –
CC(C)[C@@H]1N(C(=O)c2c[nH]c(C3CC3)n2)CC12CCCC2 | -2 | 0.25 | –
COc1nc(N[C@@H](C)c2ccccn2)nc(N2CCCCCC2)n1 | -4 | 0.65 | –
Cn1cc(C(=O)NCC2(OCCO)CCCC2)nn1 | -7 | 0.77 | –
CCOCC(=O)N1CCC(=C2CCC2)CC1 | -12 | 1.79 | –

SMILES | % Inhibition [%] | Z score | % Inhibition (2 µM)
O=C(NCCc1ccc(=O)[nH]c1)c1ccc(O[C@H]2CC2(F)F)cc1 | 1 | -0.15 | –
Cn1nc(N2CCC[C@H](C(=O)Nc3cc(C(F)(F)F)ccc3Cl)C2)ccc1=O | -11 | 2.11 | –
COCCOC1CN(C(=O)Nc2ccc(C)nc2C)C1 | -9 | 0.87 | –
Cc1nc2c(C(=O)NC(Cc3ccccn3)[C@H]3C[C@@H](O)C3)cccc2[nH]1 (some centres not stated) | -12 | 2.29 | –
Cc1nn(-c2ccc(C(F)(F)F)cc2)c(C)c1[C@@H]1C=C[C@@H](NC(=O)NC(C)C)C1 | 33 | -3.76 | –
O=C(CN1C(=O)c2cc(Cl)c(Cl)cc2C1=O)NCCOc1ccccc1 | -4 | 0.55 | –
O=C(Cn1cnc(-c2ccccc2)n1)Nc1cccc(-c2cn[nH]c2)c1 | -5 | 0.67 | –
CCN1CCN(C2(C(=O)N(C)CC3CCOCC3)Cc3ccccc3C2)CC1 | -19 | 1.66 | –
COC(=O)c1cc(=O)c2ccccc2n1Cc1ccccc1F | 6 | -0.73 | –
CO[C@@H]1C[C@H](COc2cccnc2)N(S(=O)(=O)CC(C)C)C1 | -4 | 0.48 | –
CCn1nc(C)c(Cn2cc(-c3ccc(F)c(Cl)c3)nn2)c1C | -17 | 2.38 | –
CC1(C)C(=O)c2ccccc2N1C(=O)CCS(C)(=O)=O | 0 | 0.02 | –
COc1ccc(CN2CCNC(=O)[C@@H]2CC(=O)NCCc2cccnc2)c(F)c1 | 8 | -0.87 | –
CCOC(=O)[C@H]1CCCN1S(=O)(=O)C1CC1 | 20 | -2.54 | –
Cn1cc(-c2nn(C)cc2C(=O)Nc2ccc(F)c(C3CC3)c2)cn1 | -1 | 0.11 | –
CS(=O)(=O)c1cccc(-c2nnc(NC(=O)c3ccc4c(c3)OCCO4)o2)c1 | -16 | 2.83 | –
Cc1cc([C@]2(C)NC(=O)N(CC(=O)Nc3ccccc3Cl)C2=O)c(C)o1 | -4 | 0.65 | –
CS(=O)(=O)c1cccc(-c2nnc(-c3ccc4c(c3)CCO4)o2)c1 | -15 | 3.03 | –
O=C(N[C@H]1CC12CCN(C(=O)CC1CCCC1)CC2)c1ccccc1 | -4 | 0.5 | –
CC(=O)N1CC2(CCN(CCCc3ccccc3)CC2)C[C@H]1C(=O)O | 4 | -0.84 | –
CCc1nc(CCn2cc(-c3ccc(-c4cc[nH]n4)o3)nn2)no1 | -6 | 1.16 | –
